This is an account of results in the supplement of paper PMC8183993.

Structures can show the parent of a compound that is named as a salt. ± gives the standard deviation of the averaged measurements. Whole data set: some 3,100 compounds, median “mean cytoplasmic OPP incorporation (global translation) relative to DMSO” near 100, cut for the lowest 2% near 56. Some of the results follow.

The test system of the assay is U2OS. The assay is described as follows: mean cytoplasmic OPP incorporation (global translation) relative to DMSO (% of DMSO); higher = more protein synthesis. The following applies: 10 µM; 24 h. Here is the method:
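Primary image-based screen in U2OS cells: compounds at 10 uM for 24 h, then a 1 h o-propargyl-puromycin (OPP) pulse, click labelling, and high-throughput microscopy. Mean cytoplasmic OPP intensity and nuclei count were normalised to DMSO wells within each plate (DMSO = 100) and averaged over triplicate plates.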
As to `CNC(=O)c1c(I)c(C(=O)NCC(=O)Nc2c(I)c(C(=O)O)c(I)c(C(=O)NCCO)c2I)c(I)c(N(C)C(C)=O)c1I` [Ioxaglic acid], the “mean cytoplasmic OPP incorporation” value is 107.

Take `C[C@H](Cn1cnc2c(N)ncnc21)OCP(=O)(O)O` [Tenofovir (Viread)]: the “mean cytoplasmic OPP incorporation” value came to 99.5.

Turning to `CCCCNc1cc(C(=O)O)cc(S(N)(=O)=O)c1Oc1ccccc1` [Bumetanide], the “mean cytoplasmic OPP incorporation” value is 104.

For `O=c1ccn([C@@H]2O[C@H](CO)[C@@H](O)[C@H]2O)c(=O)[nH]1` [Uridine], the “mean cytoplasmic OPP incorporation” value worked out at 95.9.

With `COc1ccc2[nH]c(-c3ccccc3)c(CCNC(C)=O)c2c1` [2-Phenylmelatonin], the “mean cytoplasmic OPP incorporation” value is 105.

With `O=C(NCCCN1CCCCCC1)C(c1ccccc1)C1CCCCC1` (stereo not drawn), the “mean cytoplasmic OPP incorporation” value worked out at 113.

With `CC(C)n1c(/C=C/C(O)CC(O)CC(=O)O)c(-c2ccc(F)cc2)c2ccccc21` (stereo not drawn) [Fluvastatin sodium (Lescol)], the “mean cytoplasmic OPP incorporation” value stood at 105.

`CC(C)n1c(/C=C/C(O)CC(O)CC(=O)O)c(-c2ccc(F)cc2)c2ccccc21` (stereo not drawn) [Fluvastatin sodium salt]: the “mean cytoplasmic OPP incorporation” value stood at 107.

As for `O=C1CCC[C@@H]2[C@H]3CCC[N+]4([O-])CCC[C@@H](CN12)[C@@H]34` (stereo partly drawn) [Oxymatrine (Matrine N-oxide)], the “mean cytoplasmic OPP incorporation” value was determined as 109.

Consider `COC(=O)C(Cc1ccc(OCCn2c(=O)sc3cc(C(=O)c4ccccc4)ccc32)cc1)C(=O)OC`, for which the “mean cytoplasmic OPP incorporation” value was 105.

Turning to `COc1cccc2cc(-c3nc([C@H]4CC[C@H](C(=O)O)CC4)n4ncnc(N)c34)[nH]c12`, the “mean cytoplasmic OPP incorporation” value came out at 73.7.

As to `CC[C@H](C)C(=O)O[C@H]1C[C@@H](C)C=C2C=C[C@H](C)[C@H](CC[C@@H]3C[C@@H](O)CC(=O)O3)[C@H]21` [Lovastatin], the “mean cytoplasmic OPP incorporation” value turned out to be 96.9 ± 15.

With `CC[C@H](C)C(=O)O[C@H]1C[C@@H](C)C=C2C=C[C@H](C)[C@H](CC[C@@H]3C[C@@H](O)CC(=O)O3)[C@H]21` [Lovastatin (Mevacor)], the “mean cytoplasmic OPP incorporation” value was determined as 107.

As for `Cc1c(C)c2c(c(C)c1O)CCC(C)(C(=O)O)O2` (stereo not drawn) [Trolox], the “mean cytoplasmic OPP incorporation” value is 98.6 ± 4.8.

Consider `CC1(c2ccccc2)OC(C(=O)O)=CC1=O` (stereo not drawn) [Acifran], for which the “mean cytoplasmic OPP incorporation” value is 102.

As to `CCN(CC)CCOC(=O)c1ccc(N)cc1` [Procaine hydrochloride], the “mean cytoplasmic OPP incorporation” value came to 90.1.

On to `O=C1Nc2ccc(-c3cccnc3)cc2/C1=C/c1ccc[nH]1` [JAK3 Inhibitor VI], for which the “mean cytoplasmic OPP incorporation” value stood at 90.

Turning to `COc1cc(C2Oc3cc([C@H]4Oc5cc(O)cc(O)c5C(=O)[C@@H]4O)ccc3OC2CO)ccc1O` (stereo partly drawn) [Silibinin (Silybin)], the “mean cytoplasmic OPP incorporation” value came out at 118.

On to `O=c1[nH]c2cc(C(F)(F)F)ccc2n1-c1cc(C(F)(F)F)ccc1O`, for which the “mean cytoplasmic OPP incorporation” value worked out at 96.7.

Turning to `CN(C)CCn1nnnc1SCC1=C(C(=O)O)N2C(=O)[C@@H](NC(=O)Cc3csc(N)n3)[C@H]2SC1` [Cefotiam hydrochloride], the “mean cytoplasmic OPP incorporation” value is 98.6.

For the compound `O=c1cc(-c2ccccc2)oc2cc(O)c(O)c(O)c12` [Baicalein], the “mean cytoplasmic OPP incorporation” value was 109 ± 13.

As for `O=C(O)CCC/C=C\CC1C(O)CC(O)C1/C=C/C(O)COc1cccc(Cl)c1` (racemic) [(±)-Cloprostenol sodium salt], the “mean cytoplasmic OPP incorporation” value turned out to be 98.9.

For the compound `O=C(O)Cc1cccc(OCCCN(Cc2cccc(C(F)(F)F)c2Cl)CC(c2ccccc2)c2ccccc2)c1` [GW 3965 hydrochloride], the “mean cytoplasmic OPP incorporation” value worked out at 97.

On to `CC(=O)O[C@H]1C[C@@]2(C)[C@@H](C[C@@H](O)[C@H]3[C@@]4(C)CC[C@@H](O)[C@@H](C)[C@@H]4CC[C@@]32C)/C1=C(\CCC=C(C)C)C(=O)O` [Fusidic acid sodium salt], for which the “mean cytoplasmic OPP incorporation” value turned out to be 108.

Regarding `N[C@@H](Cc1cc(I)c(Oc2ccc(O)cc2)c(I)c1)C(=O)O` [3,5-Diiodo-L-thyronine], the “mean cytoplasmic OPP incorporation” value is 103.

For `C[C@]1(c2nc3c(C(N)=O)cccc3[nH]2)CCCN1` [ABT-888 (Veliparib)], the “mean cytoplasmic OPP incorporation” value was 101.

Regarding `CC(=O)N[C@@H](CS)C(=O)O` [N-Acetyl-Cysteine], the “mean cytoplasmic OPP incorporation” value is 102.

For `CC(=O)N[C@@H](CS)C(=O)O` [Acetylcysteine], the “mean cytoplasmic OPP incorporation” value is 104.

For the compound `NCCCCCNCC12CC3CC(CC(C3)C1)C2` [IEM 1754 dihydrobroMide], the “mean cytoplasmic OPP incorporation” value came out at 104.

With `CCNC(=O)CCC/C=C\C[C@@H]1[C@@H](/C=C/[C@@H](O)CCc2ccccc2)[C@H](O)C[C@@H]1O` [Bimatoprost], the “mean cytoplasmic OPP incorporation” value worked out at 104.

On to `C[C@]12C[C@H](O)[C@H]3[C@@H](CCC4=CC(=O)CC[C@@]43C)[C@@H]1CC[C@@H]2C(=O)CO` [Corticosterone], for which the “mean cytoplasmic OPP incorporation” value is 98.

For the compound `COc1ccc(S(=O)(=O)Nc2cccnc2Nc2ccc(O)cc2)cc1`, the “mean cytoplasmic OPP incorporation” value came to 90.3.

`Cc1ccc(NC(=O)c2cccc(N(C)C)c2)cc1NC(=O)c1ccc(O)cc1`: the “mean cytoplasmic OPP incorporation” value was found to be 102.6 ± 0.94.

Consider `O=C1NCCc2[nH]c(-c3ccncc3)cc21`, for which the “mean cytoplasmic OPP incorporation” value was 49.9 ± 13.

On to `CC[C@H]1OC(=O)C[C@@H](O)[C@H](C)[C@@H](O[C@@H]2O[C@H](C)[C@@H](O[C@H]3C[C@@](C)(O)[C@@H](O)[C@H](C)O3)[C@H](N(C)C)[C@H]2O)[C@@H](CC=O)C[C@@H](C)C(=O)/C=C/C(C)=C/[C@@H]1CO[C@@H]1O[C@H](C)[C@@H](O)[C@@H](OC)[C@H]1OC` [Tylosin], for which the “mean cytoplasmic OPP incorporation” value was 107.

As for `CC[C@H]1OC(=O)C[C@@H](O)[C@H](C)[C@@H](O[C@@H]2O[C@H](C)[C@@H](O[C@H]3C[C@@](C)(O)[C@@H](O)[C@H](C)O3)[C@H](N(C)C)[C@H]2O)[C@@H](CC=O)C[C@@H](C)C(=O)/C=C/C(C)=C/[C@@H]1CO[C@@H]1O[C@H](C)[C@@H](O)[C@@H](OC)[C@H]1OC` [Tylosin tartrate], the “mean cytoplasmic OPP incorporation” value was 99.3.

`O=C(/C=C/c1ccc(O)c(O)c1)c1ccc(O)cc1O` [Butein]: the “mean cytoplasmic OPP incorporation” value came out at 99.1 ± 3.7.

`COC(=O)C1=C(C)NC(C)=C([N+](=O)[O-])C1c1ccccc1C(F)(F)F` (racemic): the “mean cytoplasmic OPP incorporation” value came out at 114.

In the case of `CCc1ccc2c(-c3cccc(Cl)c3)nc(=O)n(CC)c2n1`, the “mean cytoplasmic OPP incorporation” value was determined as 106.

`O=C(CCCCCCC(=O)Nc1ccccc1)NO` [Vorinostat]: the “mean cytoplasmic OPP incorporation” value worked out at 41.9.

With `O=c1cc(-c2ccccc2)oc2cc(O)cc(O)c12` [Chrysin], the “mean cytoplasmic OPP incorporation” value is 90.1.

Consider `Nc1c2c(nc3ccccc13)CCCC2` [Tacrine hydrochloride], for which the “mean cytoplasmic OPP incorporation” value turned out to be 91.34 ± 0.2.

Turning to `O=c1sn(-c2cccc3ccccc23)c(=O)n1Cc1ccccc1` [Tideglusib], the “mean cytoplasmic OPP incorporation” value came to 101.

Take `C/C(=C(\CCOP(=O)(O)O)SC(=O)c1ccccc1)N(C=O)Cc1cnc(C)nc1N` [Benfotiamine]: the “mean cytoplasmic OPP incorporation” value turned out to be 105.

Turning to `COc1cc2/c(=N/c3ccc(Br)cc3F)nc[nH]c2cc1OCC1CCN(C)CC1` [Vandetanib (Zactima)], the “mean cytoplasmic OPP incorporation” value turned out to be 106.

Take `Cc1cc(OCCCS(C)(=O)=O)cc(C)c1-c1cccc(COc2ccc3c(c2)OC[C@H]3CC(=O)O)c1`: the “mean cytoplasmic OPP incorporation” value amounted to 102.

With `CCN(CC)C(=S)SSC(=S)N(CC)CC` [Disulfiram], the “mean cytoplasmic OPP incorporation” value came out at 107 ± 8.5.

Turning to `O=C(CCCCCN1C(=O)c2cccc3cccc(c23)C1=O)NO` [Scriptaid], the “mean cytoplasmic OPP incorporation” value is 75.9 ± 12.

As for `CCN(CC)CCOC(=O)C(Cc1cccc2ccccc12)CC1CCCO1` (stereo not drawn) [Nafronyl oxalate], the “mean cytoplasmic OPP incorporation” value amounted to 111.

Take `CC(C)NCC(O)COc1ccc(COCCOC(C)C)cc1` (racemic) [(±)-Bisoprolol hemifumarate]: the “mean cytoplasmic OPP incorporation” value is 98.4.

In the case of `CC(C)NCC(O)COc1ccc(COCCOC(C)C)cc1` (racemic) [Bisoprolol fumarate], the “mean cytoplasmic OPP incorporation” value amounted to 101.

As for `NC(=O)N1C(=O)/C(=C(\O)c2cccs2)c2cc(Cl)ccc21` [Tenidap], the “mean cytoplasmic OPP incorporation” value is 117.

On to `COc1ccc(-c2nc(-c3ccc(-c4cccc(Cl)c4)o3)[nH]c2-c2ccc(OC)cc2)cc1` [Neurodazine], for which the “mean cytoplasmic OPP incorporation” value stood at 109.

For `CC1(C)S[C@@H]2[C@H](NC(=O)C(C(=O)O)c3ccccc3)C(=O)N2[C@H]1C(=O)O` (stereo partly drawn) [Carbenicillin disodium], the “mean cytoplasmic OPP incorporation” value amounted to 98.4.

Turning to `C[C@H](N)[C@H](O)c1cccc(O)c1` [Metaraminol bitartrate], the “mean cytoplasmic OPP incorporation” value stood at 94.8.

In the case of `Cc1ccccc1OCC(O)CO` (stereo not drawn) [Mephenesin], the “mean cytoplasmic OPP incorporation” value is 98.7.

With `CS(=O)(=O)c1ccc(-c2cc(Br)sc2-c2ccc(F)cc2)cc1`, the “mean cytoplasmic OPP incorporation” value was found to be 98.9.

On to `O=C1CN(/N=C/c2ccc([N+](=O)[O-])o2)C(=O)N1` [Nitrofurantoin], for which the “mean cytoplasmic OPP incorporation” value is 98.6.

As to `CC(C)N(CCCNC(=O)Nc1ccc(C(C)(C)C)cc1)C[C@H]1O[C@@H](n2cc(Br)c3c(N)ncnc32)[C@H](O)[C@@H]1O`, the “mean cytoplasmic OPP incorporation” value came out at 111.

Take `S=c1ccss1` [1,2-Dithiole-3-thione]: the “mean cytoplasmic OPP incorporation” value is 115.

As for `Cc1nc2sccn2c(=O)c1CCN1CCC(=C(c2ccccc2)c2ccc(F)cc2)CC1`, the “mean cytoplasmic OPP incorporation” value amounted to 106.

Turning to `CC(C)=CCC/C(C)=C/CC/C(C)=C/CO` [Farnesol], the “mean cytoplasmic OPP incorporation” value is 103.

Consider `O=C1Nc2ccc([N+](=O)[O-])cc2C1=O` [5-Nitroisatin], for which the “mean cytoplasmic OPP incorporation” value is 104.

`Cc1cc(NS(=O)(=O)c2ccc(N)cc2)no1` [Sulfamethoxazole]: the “mean cytoplasmic OPP incorporation” value turned out to be 102.

As to `CN[C@@H]1[C@@H](O)[C@@H](O[C@@H]2[C@@H](O)[C@H](O[C@H]3OC(CN)=CC[C@H]3N)[C@@H](N)C[C@H]2N)OC[C@]1(C)O` [Sisomicin sulfate], the “mean cytoplasmic OPP incorporation” value worked out at 99.5.

For the compound `CC1(C)S[C@@H]2[C@H](NC(=O)[C@H](C(=O)O)c3ccsc3)C(=O)N2[C@H]1C(=O)O` [Ticarcillin sodium], the “mean cytoplasmic OPP incorporation” value came out at 105.

As for `CCOC(=O)n1ccn(C)c1=S` [Carbimazole], the “mean cytoplasmic OPP incorporation” value was determined as 97.7.

`CC(C)[C@H]1c2ccc(F)cc2CC[C@@]1(CCN(C)CCCc1nc2ccccc2[nH]1)OC(=O)C1CC1` [NNC 55-0396 dihydrochloride]: the “mean cytoplasmic OPP incorporation” value worked out at 55.5.

Turning to `COc1cc(O)c2c(c1)C(=O)c1cc(C)cc(O)c1C2=O` [Rheochrysidin (Physcione)], the “mean cytoplasmic OPP incorporation” value was 98.

As to `COc1cc(N2CCC(N)CC2)ccc1Nc1ncc(Cl)c(-c2c[nH]c3ccccc23)n1`, the “mean cytoplasmic OPP incorporation” value worked out at 36.5.

Turning to `O=C1CN(/N=C/c2ccc(-c3ccc([N+](=O)[O-])cc3)o2)C(=O)N1` [Dantrolene, sodium salt], the “mean cytoplasmic OPP incorporation” value came out at 106.

As to `O=C1CN(/N=C/c2ccc(-c3ccc([N+](=O)[O-])cc3)o2)C(=O)N1` [Dantrolene sodium salt], the “mean cytoplasmic OPP incorporation” value turned out to be 86.

As for `O=C1CN(/N=C/c2ccc(-c3ccc([N+](=O)[O-])cc3)o2)C(=O)N1` [Dantrolene], the “mean cytoplasmic OPP incorporation” value was 97.5.
